Experimental data as given in the supplement of paper PMC9135407.
“And” between values parts separate entries of the source, which are not always exact repeats. Identical values can stand only once. Counter-ions that a name gives are not always drawn. Out of some 5,800 compounds screened, about 620 (11%) showed activity.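 How the source made its calls: active = score above a cut-off or among the top three wells of a plate; in these data no inactive exceeds 0.85.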 The list shows a part of the results, in another mix than the full data.

Tested on: primary human hepatic stellate cells (donor 1)
Test: scaled lipid accumulation score (0 = DMSO-like, 1 = nortriptyline-like); higher = stronger HSC inactivation (lipid re-accumulation), active = hit call of the paper
Settings: 48 h
Description: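 Primary lipid accumulation screen in primary human hepatic stellate cell myofibroblasts (donor 1, passage 8) in 384-well plates. 100 nL of library compound was pin-transferred into 30 µL medium in duplicate, and cells were treated for 48 h. The 'Scaled' score combines distance from plate baseline, toxicity and reproducibility penalties, and is normalised to nortriptyline (positive) and DMSO (negative) controls on each plate. A hit is defined as scaled >0.85 or among the top 3 wells per plate.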

[1] = library stock concentration: 3.33 mM
[2] = library stock concentration: 10 mM
[3] = library stock concentration: 400 uM
[4] = library stock concentration: 2 mM
[5] = library stock concentration: 1 mM

O=c1ccc2ccc(O)c(O)c2o1 [Daphnetin]
scaled lipid accumulation score [1]: inactive: 0.017
scaled lipid accumulation score [2]: inactive: ≤ 0 and inactive: 0.193

N#CC(c1ccc(Cl)cc1)c1c(Cl)cc(-n2ncc(=O)[nH]c2=O)cc1Cl (configuration not stated) [Diclazuril]
scaled lipid accumulation score [1]: inactive: ≤ 0
scaled lipid accumulation score (library stock concentration: 4.9 mM): inactive: ≤ -0.006
scaled lipid accumulation score [2]: inactive: ≤ 0

CN1CCN(c2ccc3nc(-c4c(N)c5c(F)cccc5[nH]c4=O)[nH]c3c2)CC1 [Dovitinib (TKI-258, CHIR-258)]
scaled lipid accumulation score [1]: active: 1.25
scaled lipid accumulation score [2]: active: 1.13

O=C1Cc2c([nH]c3ccc([N+](=O)[O-])cc23)-c2ccccc2N1 [Alsterpaullone]
scaled lipid accumulation score [1]: inactive: ≤ 0

CC(C)(C)C(=O)OCOP(=O)(COCCn1cnc2c(N)ncnc21)OCOC(=O)C(C)(C)C [Adefovir Dipivoxil]
scaled lipid accumulation score [1]: inactive: ≤ 0
scaled lipid accumulation score [2]: inactive: 0.081

O=S(=O)(c1cccc2c(I)cccc12)N1CCCNCC1 [ML-7, Hydrochloride]
scaled lipid accumulation score [1]: inactive: 0.25

O=S(=O)(c1cccc2c(I)cccc12)N1CCCNCC1
scaled lipid accumulation score (library stock concentration: 80 uM): inactive: ≤ -0.001
scaled lipid accumulation score [3]: inactive: ≤ -0.001
scaled lipid accumulation score [4]: inactive: 0.204

CCN(CC)CCOCCOC(=O)C(CC)(CC)c1ccccc1.O=C(O)CC(O)(CC(=O)O)C(=O)O
scaled lipid accumulation score [2]: active: 0.866

Nc1nc(N)c2nc(-c3cccc(O)c3)cnc2n1
scaled lipid accumulation score [1]: inactive: ≤ 0
scaled lipid accumulation score [2]: inactive: ≤ 0

CCN1C(=O)NC(c2ccccc2)C1=O (configuration not stated) [Ethotoin]
scaled lipid accumulation score: inactive: ≤ 0

CN1CCC(=C2c3ccccc3CC(=O)c3sccc32)CC1
scaled lipid accumulation score [2]: inactive: 0.593

CN1CCC(=C2c3ccccc3CC(=O)c3sccc32)CC1 [Ketotifen fumarate]
scaled lipid accumulation score: inactive: 0.627
scaled lipid accumulation score (library stock concentration: 4.7 mM): inactive: 0.276
scaled lipid accumulation score [2]: inactive: 0.172 and inactive: 0.737

CN1CCC(=C2c3ccccc3CC(=O)c3sccc32)CC1 [Ketotifen Fumarate]
scaled lipid accumulation score [1]: inactive: ≤ 0
scaled lipid accumulation score [2]: inactive: 0.576

COc1ccccc1N1CCN(CC(O)COc2cccc3ccccc23)CC1 (configuration not stated)
scaled lipid accumulation score [2]: inactive: 0.313

COc1ccccc1N1CCN(CC(O)COc2cccc3ccccc23)CC1 (configuration not stated) [Naftopidil]
scaled lipid accumulation score [1]: inactive: ≤ 0
scaled lipid accumulation score [2]: inactive: 0.03

COc1ccccc1N1CCN(CC(O)COc2cccc3ccccc23)CC1 (configuration not stated) [Naftopidil dihydrochloride]
scaled lipid accumulation score: inactive: ≤ 0
scaled lipid accumulation score [2]: inactive: 0.725

COc1ccccc1N1CCN(CC(O)COc2cccc3ccccc23)CC1 (configuration not stated) [Naftopidil 2HCl]
scaled lipid accumulation score (library stock concentration: 5.1 mM): inactive: ≤ -0.006

COc1ccccc1N1CCN(CC(O)COc2cccc3ccccc23)CC1 (configuration not stated) [Naftopidil DiHCl]
scaled lipid accumulation score [1]: inactive: ≤ 0
scaled lipid accumulation score [2]: inactive: ≤ 0

COc1ccccc1N1CCN(CC(O)COc2cccc3ccccc23)CC1 (configuration not stated) [Naftopidil hydrochloride]
scaled lipid accumulation score [2]: inactive: 0.409

CCCCC/C=C/C/C=C/C/C=C/C/C=C/CCCC(=O)Oc1ccc2ccc(=O)oc2c1 [7-hydroxycoumarinyl Arachidonate]
scaled lipid accumulation score [5]: inactive: ≤ 0

Cc1nnc(-c2ccc3occ(-c4ccc([S+](C)[O-])cc4)c3c2)o1 (configuration not stated)
scaled lipid accumulation score [2]: inactive: 0.106

COC(=O)c1ccccc1O [Methyl salicylate]
scaled lipid accumulation score (library stock concentration: 13.1 mM): inactive: ≤ -0.003

COc1ccc2c(c1)N(C[C@H](C)CN(C)C)c1ccccc1S2 [Methotrimeprazine maleat salt]
scaled lipid accumulation score: inactive: 0.642

C/C=C1\NC(=O)[C@H]2CSSCC/C=C/[C@H](CC(=O)N[C@H](C(C)C)C(=O)N2)OC(=O)[C@H](C(C)C)NC1=O [Romidepsin (FK228, Depsipeptide)]
scaled lipid accumulation score [1]: inactive: 0.521
scaled lipid accumulation score [2]: inactive: 0.472

O=C(O)CC[C@H]1CC[C@@](c2cc(F)ccc2F)(S(=O)(=O)c2ccc(Cl)cc2)CC1
scaled lipid accumulation score [1]: inactive: 0.022
scaled lipid accumulation score [2]: inactive: ≤ 0

CCCCC/C=C\C/C=C\C/C=C\C/C=C\CCCC(=O)OCc1ccsc1
scaled lipid accumulation score [5]: inactive: ≤ 0

CCCN(CCC)C(=O)C(CCC(=O)O)NC(=O)c1ccccc1 (configuration not stated) [Proglumide]
scaled lipid accumulation score: inactive: 0.057
scaled lipid accumulation score (library stock concentration: 6 mM): inactive: ≤ 0
scaled lipid accumulation score [2]: inactive: ≤ 0 and inactive: ≤ -0.009

CO[C@@]1(NC(=O)CSCC#N)C(=O)N2C(C(=O)O)=C(CSc3nnnn3C)CS[C@@H]21 [Cefmetazole sodium salt]
scaled lipid accumulation score: inactive: ≤ 0

CO[C@@]1(NC(=O)CSCC#N)C(=O)N2C(C(=O)O)=C(CSc3nnnn3C)CS[C@@H]21 [Cefmetazole sodium]
scaled lipid accumulation score [2]: inactive: 0.006 and inactive: ≤ 0

CC(C)OC(=O)CCC/C=C/C[C@@H]1[C@@H](/C=C/[C@H](O)CCc2ccccc2)[C@H](O)C[C@@H]1O
scaled lipid accumulation score [5]: inactive: ≤ 0

COc1ccc2[nH]c(I)c(CCNC(C)=O)c2c1 [2-Iodomelatonin]
scaled lipid accumulation score [2]: inactive: 0.011

CN(C)CC(C)(C)CNc1nn2c(-c3ccccc3)nnc2cc1C1CCC1
scaled lipid accumulation score [3]: inactive: ≤ -0.005
scaled lipid accumulation score [4]: inactive: ≤ -0.005
scaled lipid accumulation score [2]: inactive: 0.159
